Source: article PMC9911399, “Two distinct binding modes provide the RNA-binding protein RbFox with extraordinary sequence specificity”
Positions count from the first letter of the chain named. This is one part of the list.

T1: RBFOX1 RRM (Homo sapiens, UniProt Q9NWB1 109-208)
T1 sequence: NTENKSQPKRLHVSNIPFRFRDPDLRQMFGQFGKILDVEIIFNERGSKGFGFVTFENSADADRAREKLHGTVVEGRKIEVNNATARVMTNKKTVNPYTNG

B1: GAGAAUC (DNA:RNA)
RNA: GGGAGACCGGAAUUCAGAUUGUCCGAGAAUCUUAAAUCCCGUCGUAGCCACCA
DNA 1: CAATCTGAATTCCGGTCTCCC
DNA 2: TGGTGGCTACGACGGGATT
B2: UGGUACC (DNA:RNA)
RNA: B1 RNA with G25U, A26G, A28U, U30C
DNA 1: CAATCTGAATTCCGGTCTCCC
DNA 2: TGGTGGCTACGACGGGATT
B3: GUGGAAU (DNA:RNA)
RNA: B1 RNA with A26U, A28G, U30A, C31U
DNA 1: CAATCTGAATTCCGGTCTCCC
DNA 2: TGGTGGCTACGACGGGATT
B4: AAAGUUU (DNA:RNA)
RNA: B1 RNA with G25A, G27A, A28G, A29U, C31U
DNA 1: CAATCTGAATTCCGGTCTCCC
DNA 2: TGGTGGCTACGACGGGATT
B5: AUGCACC (DNA:RNA)
RNA: B1 RNA with G25A, A26U, A28C, U30C
DNA 1: CAATCTGAATTCCGGTCTCCC
DNA 2: TGGTGGCTACGACGGGATT
B6: CCUCAGC (DNA:RNA)
RNA: B1 RNA with G25C, A26C, G27U, A28C, U30G
DNA 1: CAATCTGAATTCCGGTCTCCC
DNA 2: TGGTGGCTACGACGGGATT
B7: UGACUUU (DNA:RNA)
RNA: B1 RNA with G25U, A26G, G27A, A28C, A29U, C31U
DNA 1: CAATCTGAATTCCGGTCTCCC
DNA 2: TGGTGGCTACGACGGGATT
B8: CUUCCCA (DNA:RNA)
RNA: GGGAGACCGGAAUUCAGAUUGUCCCUUCCCAUUAAAUCCCGUCGUAGCCACCA
DNA 1: CAATCTGAATTCCGGTCTCCC
DNA 2: TGGTGGCTACGACGGGATT
B9: CUAAUUA (DNA:RNA)
RNA: B8 RNA with U27A, C28A, C29U, C30U
DNA 1: CAATCTGAATTCCGGTCTCCC
DNA 2: TGGTGGCTACGACGGGATT
B10: CAAGUCC (DNA:RNA)
RNA: B8 RNA with U26A, U27A, C28G, C29U, A31C
DNA 1: CAATCTGAATTCCGGTCTCCC
DNA 2: TGGTGGCTACGACGGGATT
B11: CCUUACU (DNA:RNA)
RNA: B8 RNA with U26C, C28U, C29A, A31U
DNA 1: CAATCTGAATTCCGGTCTCCC
DNA 2: TGGTGGCTACGACGGGATT
B12: CACGCAA (DNA:RNA)
RNA: B8 RNA with U26A, U27C, C28G, C30A
DNA 1: CAATCTGAATTCCGGTCTCCC
DNA 2: TGGTGGCTACGACGGGATT
B13: UUAGCUC (DNA:RNA)
RNA: B8 RNA with C25U, U27A, C28G, C30U, A31C
DNA 1: CAATCTGAATTCCGGTCTCCC
DNA 2: TGGTGGCTACGACGGGATT
B14: GGCCUGG (DNA:RNA)
RNA: B8 RNA with C25G, U26G, U27C, C29U, C30G, A31G
DNA 1: CAATCTGAATTCCGGTCTCCC
DNA 2: TGGTGGCTACGACGGGATT
B15: UGGACAC (DNA:RNA)
RNA: B1 RNA with G25U, A26G, A29C, U30A
DNA 1: CAATCTGAATTCCGGTCTCCC
DNA 2: TGGTGGCTACGACGGGATT
B16: UGUCCCC (DNA:RNA)
RNA: B8 RNA with C25U, U26G, A31C
DNA 1: CAATCTGAATTCCGGTCTCCC
DNA 2: TGGTGGCTACGACGGGATT
B17: GGCGAAA (DNA:RNA)
RNA: B1 RNA with A26G, G27C, A28G, U30A, C31A
DNA 1: CAATCTGAATTCCGGTCTCCC
DNA 2: TGGTGGCTACGACGGGATT
B18: AAGUUUA (DNA:RNA)
RNA: B1 RNA with G25A, A28U, A29U, C31A
DNA 1: CAATCTGAATTCCGGTCTCCC
DNA 2: TGGTGGCTACGACGGGATT
B19: UAACACU (DNA:RNA)
RNA: B8 RNA with C25U, U26A, U27A, C29A, A31U
DNA 1: CAATCTGAATTCCGGTCTCCC
DNA 2: TGGTGGCTACGACGGGATT
B20: GUGUCUG (DNA:RNA)
RNA: B1 RNA with A26U, A28U, A29C, C31G
DNA 1: CAATCTGAATTCCGGTCTCCC
DNA 2: TGGTGGCTACGACGGGATT

Each binder was assayed against T1, RBFOX1 RRM (assay: EMSA; HiTS-Eq, 1 nM pool, 10 min; buffer printed only for the single-RNA assays: 10 mM Tris pH 7.5, 150 mM NaCl, 3.4 mM EDTA, 0.001% NP-40, 30 C). Conditions: tags: His6 N-terminal (pET28a); label: 5' 32P.
Method in brief: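 Purified wild-type or mutant RbFox RRM at increasing concentrations was equilibrated with 1 nM of 5′-radiolabelled RNA carrying 7 randomized nucleotides for 10 min in 50 µL. Unbound RNA was separated by 8% native PAGE and sequenced. Relative association constants came from read-count changes of each RNA species compared with the control reaction, normalised to the cognate motif.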

Binder | binding signal
B1 | 0.0151 KA relative to UGCAUGU
B2 | 0.0181 KA relative to UGCAUGU
B3 | 0.0161 KA relative to UGCAUGU
B4 | 0.00559 KA relative to UGCAUGU
B5 | 0.0115 KA relative to UGCAUGU
B6 | 0.00826 KA relative to UGCAUGU
B7 | 0.0147 KA relative to UGCAUGU
B8 | 0.00369 KA relative to UGCAUGU
B9 | 0.00185 KA relative to UGCAUGU
B10 | 0.00343 KA relative to UGCAUGU
B11 | 0.00331 KA relative to UGCAUGU
B12 | 0.00431 KA relative to UGCAUGU
B13 | 0.00702 KA relative to UGCAUGU
B14 | 0.0202 KA relative to UGCAUGU
B15 | 0.0159 KA relative to UGCAUGU
B16 | 0.00602 KA relative to UGCAUGU
B17 | 0.00956 KA relative to UGCAUGU
B18 | 0.00156 KA relative to UGCAUGU
B19 | 0.0028 KA relative to UGCAUGU
B20 | 0.0236 KA relative to UGCAUGU
